Experimental data from PubChem BioAssay (NCI).
“And” between values parts separate entries of the source, which are not always exact repeats. Equal values may be shown once.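 Dose response: 5 concentrations. Exposure: 48 h. Format: 96-well plates. Endpoint: linear interpolation; highest concentration if not reached. Here, GI50 denotes the concentration required for 50% inhibition of growth. TGI marks complete inhibition of growth.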

The compounds below were run on NCI-H322M lung (assay: growth of human tumour cells (NCI), 48 h).

| Compound | TGI | GI50 [µM] |
| --- | --- | --- |
| CC(C)(CCl)NC(=O)c1cccc(C(=O)NC(C)(C)CCl)n1 | > 100 µM | – |
| C[C@]12CCc3nonc3C1CC[C@@H]1C2CC[C@@]2(C)C1CC[C@@H]2O (some centres undefined) | > 100 µM | – |
| COC(=O)[C@@H]1C[C@]2(Br)c3ccccc3N(S(=O)(=O)c3ccccc3)[C@@H]2N1C(=O)OC | > 100 µM | – |
| CCc1cccc(C(C)CC)c1NC(=O)C(=O)Cc1nc2ccccc2o1 (centres undefined) | > 50 µM | – |
| CCO[C@H]1O[C@@H]2OC3(C)CCC4[C@H](C)CCC([C@H]1C)[C@]42OO3 (some centres undefined) | > 100 µM | – |
| N#CC1(N2CCCC2)CCC2(CC1)OCCO2 | > 100 µM | – |
| COC(=O)C1=C(C(=O)ON)[C@@H]2C=C[C@@]1([C@@H](Cc1ccccc1)Nc1ccccc1)O2 | 28.4 µM | 15.1 |
| COc1ccc(-c2oc3c(OC)c(OC)c(OC)c(O)c3c(=O)c2OC)cc1O | 76.8 µM | < 0.01 |
| C/C(=C\C(C[C@](C)(O)C(O)CCC#C[Si](C)(C)C)S(=O)(=O)c1ccccc1)CC/C=C/CO[Si](C)(C)C(C)(C)C (some centres undefined) | 32.8 µM | – |
| COc1c(C)c(OC)c(C(=O)CC(C)C)c(OC)c1C | > 100 µM | – |
| O=C(Nc1ccccc1Cl)c1ccc(NC2=C(Cl)C(=O)N(C3CCCCC3)C2=O)cc1 | 21.2 µM | 5.79 |
| CC(=O)OC12CC[N+]3(C)CCCCC3C1=Nc1ccccc12 (centres undefined) | > 100 µM | – |
| CCCCC(OC(=O)c1ccc(N)cc1)C(=O)Nc1nc(CC(=O)OCC)cs1 (centres undefined) | > 100 µM | 60.3 |
| CS(=O)(=O)NNS(=O)(=O)c1ccc(F)cc1 | > 100 µM | – |
| CN(C)/C=C/c1c2c(nc3ccccc13)C(=O)c1cccnc1C2=O | 1.87 µM | – |
| CN(/N=C/c1ccc(Cl)c(Cl)c1)C1=NCCCCN1 | 15.3 µM | – |
| Cn1c2ccccc2c2c3c(c4c5ccccc5n(C5OC(CO)C(O)C(O)C5O)c4c21)C(=O)OC3=O (centres undefined) | > 100 µM | – |
| COc1ccc(C(=O)CCN(C)C)c2ccccc12 | > 100 µM | – |
| FC(F)(F)c1nc(SCc2ccc(Cl)cc2)n[nH]1 | > 100 µM | – |
| CCOc1ccccc1Nc1ccc(N)cc1S(=O)(=O)O | > 100 µM | – |
| COc1ccc(C(=O)c2nc3ccccc3nc2N2CCN(c3ccccc3)CC2)cc1OC | > 100 µM | – |
| Cc1nn(C(=O)Cc2ccccc2)c2c1C(c1ccc([N+](=O)[O-])cc1)SC(N)=N2 (centres undefined) | > 100 µM | – |
| CCCCCCCC(=O)OC[C@H](C[As](=O)(O)O)OC(=O)CCCCCCC | 27.8 µM | – |
| O=C(O[C@H]1[C@@H]2C=CO[C@@H](OC3OC(CO)C(O)C(O)C3O)[C@@H]2[C@@]2(CO)O[C@@H]12)c1ccc(O)c(O)c1 (some centres undefined) | > 100 µM | – |
| c1ccc(SCCc2ccncc2)cc1 | > 100 µM | – |

| Compound | TGI | GI50 [µM] |
| --- | --- | --- |
| Cc1ccc(/C=N/NS(=O)(=O)c2ccccc2)cc1C | > 100 µM | – |
| O=C1CCC2(CC1CCS(=O)c1ccccc1)OCCO2 (centres undefined) | > 100 µM | – |
| O=C(CCCC(=O)N/N=C/c1cc(Cl)ccc1O)N/N=C\c1cc(Cl)ccc1O | > 100 µM | 4.5 |
| CN(CCNC(=O)c1nn(-c2ccc(Cl)cc2Cl)c2c1Cc1ccccc1-2)CCNC(=O)c1nn(-c2ccc(Cl)cc2Cl)c2c1Cc1ccccc1-2 | > 100 µM | – |
| CC(=O)OC1=C2CC[C@@H]3C(CC[C@@]4(C)C3CC[C@@H]4OC(C)=O)[C@@]2(C)CC(C#N)C1=O (some centres undefined) | > 100 µM | – |
| COC(=O)N/N=C(\C)CC(=O)Nc1cccc([N+](=O)[O-])c1 | > 100 µM | – |
| CC1OC(CC(=O)O)Cc2c1c(O)c1c(O)cc(-c3cc(=O)c4c(=O)c5c(c(=O)c=4c3=O)CC(CC(=O)O)OC5C)c(O)c1c2O (centres undefined) | > 100 µM | 40.2 |
| CSc1nc(NC2OCC(OC(C)=O)C(OC(C)=O)C2OC(C)=O)c2c(n1)OCC2=O (centres undefined) | > 100 µM | – |
| CC1=C2[C@@H](CC1)[C@]1(C)O[C@@](C(C)C)(C[C@H]1OC(=O)CO)[C@H]2OC(=O)CCCc1ccccc1 | 24 µM | 11.8 |
| CCCCc1nc(C)oc1C(C)C | > 100 µM | – |
| COc1ccc2c(c1)C(=O)c1c-2c(N2CCN(C(=O)CCNCCNCCN)CC2)nc2ccccc12 | 40.8 µM | 19.1 |
| O=c1oc2ccc(Cl)cc2c(=O)n1-c1ccc(F)cc1F | > 100 µM | 2.24 |
| CCOc1cc(C2SCC(=O)N2c2ccc3c(c2)Oc2c(Cl)c4c(c(Cl)c2=N3)Oc2cc(N3C(=O)CSC3c3ccc(O)c(OCC)c3)ccc2N=4)ccc1O (centres undefined) | > 100 µM | – |
| O=C1OC(c2ccc(Cl)cc2)=N/C1=C\c1ccccc1 | > 100 µM | – |
| O=C1/C(=C/c2ccccc2)CCc2ccc([N+](=O)[O-])cc21 | > 100 µM | – |
| CN/N=C(\C(=O)Nc1ccc(C(F)(F)F)cc1[N+](=O)[O-])C(c1cnc2ccc([N+](=O)[O-])cc2n1)[N+](=O)[O-] (centres undefined) | > 100 µM | – |
| FC(F)(F)c1cc(NC(=S)N2c3ccccc3-n3cccc3C2c2cccnc2)cc(C(F)(F)F)c1 (centres undefined) | 58.8 µM | 20.4 |
| N#Cc1ccc([N+](=O)[O-])cc1NC(N)=S | > 100 µM | – |
| CC(ON1[C@](C)(c2ccccc2)CC[C@@]1(C)c1ccccc1)c1ccccc1 (some centres undefined) | > 100 µM | – |
| COc1ccc(N/N=C/C2=CC(C)(C)C(C#N)(C#N)C(O)=C2C#N)cc1 | > 100 µM | – |
| CCOC(=O)CNC(=O)OCc1ccccc1 | > 100 µM | – |
| COc1ccccc1NC(=O)CC(=O)n1nc(C)c(N=Nc2ccccc2Cl)c1C | > 100 µM | – |
| COCN1C(=N)C(C(=O)OC(C)(C)C)=C2C=C(O)C=CC21C (centres undefined) | 28.2 µM | – |
| CCCCc1n(Cc2ccc3ccccc3n2)cc[n+]1Cc1ccc2ccccc2n1 | 16.1 µM | 3.6 |
| CCc1cccc(NC(=O)Nc2ccc(Oc3ccc4nc(NC(=O)OC)[nH]c4c3)cc2)c1 | > 25 µM | 12.6 |

| Compound | TGI | GI50 [µM] |
| --- | --- | --- |
| Cc1ccc2nc(CN(CCO)CCO)cc(=O)n2c1 | > 100 µM | – |
| NNc1nc2ccccc2o1 | > 100 µM | – |
| O=S1(=O)c2cc(S(=O)(=O)n3ccnc3)ccc2NC2=NCCCN21 | > 100 µM | – |
| N#CC(C(=O)CCC(=O)Nc1cccc(C(F)(F)F)c1)c1ccccc1 (centres undefined) | > 100 µM | – |
| C/C(CC(C)(C)N1CC1)=N\NC(=O)Nc1cccc2ccccc12 | 18.2 µM | 4.46 |
| N#Cc1sc2c(c1OC(=O)c1ccc(Cl)cc1Cl)c(=O)n(-c1ccccc1)c(=S)n2-c1ccccc1 | > 100 µM | – |
| Cc1nc2ccccc2c(/C=C/c2ccccc2)c1C(=O)/C=C/c1ccc(C(F)(F)F)cc1 | 2.86 µM | 1.5 |
| CC(=O)OCC1=CC2OC(=O)C3=COC(OC4OC(CO)C(O)C(O)C4O)C1C32 (centres undefined) | > 100 µM | – |
| COc1ccc2nc3c(cc2c1)C(=O)CC(c1ccccc1)C3 (centres undefined) | > 100 µM | 9.03 |
| CN[C@@H](Cc1cccc2ccccc12)C(=O)N[C@@H](CC(C)C)B(O)O | 0.313 µM and 0.194 µM | 0.124 |
| COc1ccc(/C=C2/SC(=Nc3ccccc3)N(NC(=O)Cc3ccccc3)C2=O)c(OC)c1 | > 100 µM | – |
| Cc1cn(C2CC(N=[N+]=[N-])C(CO)O2)c(=O)n(CCCCBr)c1=O (centres undefined) | > 100 µM | – |
| COc1ccc(C[C@]23CCC(=O)N2CCc2cc(OC)c(O)cc23)cc1O | > 100 µM | – |
| O=S1(=O)c2ccccc2N2C(c3ccccc3)=NOC2(c2ccccc2)CC1c1ccc(Br)cc1 (centres undefined) | > 100 µM | – |
| CCN(CCO)CCCC(C)Nc1ccnc2cc(Cl)ccc12 (centres undefined) | > 100 µM | > 100 |
| COc1cc2c(cc1O)c(=O)n(CCN(C)C)c1c3cc4c(cc3ncc21)OCO4 | 1.47 µM | 0.0306 |
| O=C(CC1(O)C(=O)Nc2ccccc21)c1ccc(Cl)cc1Cl (centres undefined) | > 100 µM | – |
| Cc1cccc2c(NCCN(C)C)c3cccc(C(=O)NCCN(C)C)c3nc12 | 6 µM | – |
| N#CC1(C#N)[C@@H]2CCC=C(Sc3ccccc3)[C@@H]21 | 40.1 µM | – |
| Cc1ccc2[nH]c(C(=O)NN3C(=O)C(C)SC34CCC(C)CC4)c(-c3ccccc3)c2c1 (centres undefined) | 42.5 µM | 18.5 |
| O=C1/C(=C/C=C/c2ccccc2)N=C(c2ccccc2)N1c1ccc(S(=O)(=O)Nc2nccs2)cc1 | > 100 µM | – |
| C1=CC=C2NCCc3cccc(c3)CCNC3=CC=CC=CC3=NCCCCCCN=C2C=C1 | 49.5 µM | – |
| Brc1ccc(C=NC23CC4CC(CC(C4)C2)C3)cc1 | > 100 µM | – |
| CC(C)c1cccc(C(C)C)c1NC(=O)C(=O)C1CCC2=C(Sc3ccccc3N2)C1=O (centres undefined) | > 100 µM | – |
| CC[C@]1(Cc2ccc(OC)c(OC)c2)C2CC(C(=O)OC)ON2O[C@H](OCc2ccccc2)[C@@H]1OC(C)=O (some centres undefined) | > 100 µM | – |

| Compound | TGI | GI50 [µM] |
| --- | --- | --- |
| O=C1CCCCN1 | > 1120 µM | – |
| COC(=O)CCC(=O)c1ccc2c(c1)CC1(C2)Cc2ccc(C(=O)CCC(=O)OC)cc2C1 | > 100 µM | – |
| CN(/N=C/c1ccccc1O)c1ccc2ccccc2n1 | 46.6 µM | – |
| COc1cc(NS(C)(=O)=O)ccc1Cc1c2ccccc2nc2ccccc12 | 3.87 µM | 1.46 |
| C#CCOC(=O)/C=C/C(=O)Oc1ccc2c(C)cc(=O)oc2c1 | > 100 µM | > 100 |
| CCc1ccc(Cc2ccc(CC)c(NC(=O)C(=O)C3NC(=S)NC3=O)c2CC)c(CC)c1NC(=O)C(=O)C1NC(=S)NC1=O (centres undefined) | > 100 µM | – |
| S=C1SCN(Cc2ccccc2)CN1Cc1ccccc1 | > 71.7 µM | 18.2 |
| Cc1cc2c(=O)c(C)n[nH]c2c(C#N)c1C | > 100 µM | – |
| CCCS(=O)(=O)Nc1cccc(Nc2ncnc3cc(NC(=O)CCl)ccc23)c1Cl | 12.6 µM | 4.92 |
| COc1cc2c(/C=C3/C(=O)Nc4ccc(O)cc43)c(Cl)n(Cc3cc(OC)c(OC)c(OC)c3)c2cc1C | > 30.7 µM | 4.79 |
| CC1(O)C2(c3ccccc3)CCC[N+]1(C)CC2 (centres undefined) | > 100 µM | – |
| O=C(c1ccccc1)N(CCCCNC(=O)C(F)(F)F)CCCNC(=O)C(F)(F)F | > 100 µM | – |
| [N-]=[N+]=Nc1c(-c2ccccc2)c(=O)n(-c2ccccc2)c2ccccc12 | > 100 µM | – |
| C#CC(C)(C)OCCCCOc1cc(O)c2c(=O)c3ccccc3n(C)c2c1 | > 100 µM | – |
| O=[N+]([O-])c1cc(I)cc(/C=N/NS(=O)(=O)c2ccc(Cl)cc2)c1O | 53.4 µM | – |
| COc1ccc(C2CC(c3ccc(OC)cc3O)=NN2c2ccc(S(N)(=O)=O)cc2)cc1 (centres undefined) | > 100 µM | 13.7 |
| O=C(c1ccc2ccccc2c1)c1c(C(F)(F)F)n([O-])c2cc(C(F)(F)F)ccc2[n+]1=O | 3.9 µM | 1.86 |
| C=CCOc1ccc(N)c([N+](=O)[O-])c1 | > 100 µM | – |
| CN(C)c1ccc(C2CC(=O)CC(c3ccc(N(C)C)cc3)C23C(=O)NC(=S)NC3=O)cc1 (centres undefined) | > 100 µM | – |
| O=C(C=Nc1ccccc1S)c1ccco1 | 15.3 µM | – |
| CO/N=C(/C(=O)Nc1c[n+](CC(=O)[O-])cs1)c1csc(N)n1 | > 100 µM | – |
| O=[N+]([O-])c1cccc(C2=NN(c3ccccc3)C3c4ccccc4OCC23)c1 (centres undefined) | > 100 µM | – |
| COc1cc(NC(C)=O)ccc1C(=O)N/N=C/c1ccco1 | > 100 µM | – |
